Experimental data taken from ChEMBL document CHEMBL1201862, “PubChem BioAssay data set” (2004).

Test system: NCI-H322M
Test: NCI-60 cell line screen, 48 h

Row | Structure (SMILES) | GI50
1 | C[N+]1(C)C2CC(OC(=O)C(CO)c3ccccc3)CC1C1OC12 (stereo unspecified) | inactive: > 100 µM
2 | COC(C)(C)C1=CCC(C)CC1 (stereo unspecified) | inactive: > 100 µM
3 | COc1cc(OCc2ccc3nc(OC)c(OC)nc3c2)cc(OC)c1OC | inactive: > 10 µM
4 | S=C=NC1CCC(c2cc3ccccc3s2)(N2CCCCC2)CC1 (stereo unspecified) | inactive: 4.01 µM
5 | Cc1ccc(/C=C(\NC(=O)c2ccccc2)c2nc3ccccc3[nH]2)cc1 | inactive: > 100 µM
6 | CC1=C(C(=O)CC(=O)C(=O)Nc2ccc(C)c(C)c2)Sc2ccccc2N1 | inactive: > 100 µM
7 | Cc1nc(O)nc(NNCc2ccc(Cl)cc2)c1C(=O)Nc1ccc(Cl)cc1 | inactive: > 100 µM
8 | Cc1ccc(Cn2c(C)nc3c2C(=O)c2ccccc2C3=O)cc1 | inactive: 11.2 µM
9 | Cc1c(/C=N/NC(=S)Nc2ccc(Cl)cc2)c(=O)n(-c2ccccc2)n1C | inactive: 54.5 µM
10 | O=C(O)C1CCCCC1c1c2ccc(=O)cc-2oc2cc(O)ccc12 (stereo unspecified) | inactive: 30.2 µM
11 | N#C/C=C1\C=CC(O)C(O)C1OC1OC(CO)C(O)C(O)C1O (stereo unspecified) | inactive: > 100 µM
12 | N#CCCN(CCN(CCN(C(=O)Nc1ccccc1)c1ccccc1)C(=O)Nc1ccccc1)C(=O)Nc1ccccc1 | inactive: > 100 µM
13 | CSc1c(C#N)c2n(c3ccccc3[n+]2C)c2ncccc12 | inactive: 35.2 µM
14 | c1ccc(-c2sc(-c3ccccc3)c3c2C(c2ccccc2)c2c(-c4ccccc4)sc(-c4ccccc4)c2C3c2ccccc2)cc1 (stereo unspecified) | inactive: > 100 µM
15 | COc1ccc(/C=C2\N=C(c3ccccc3)OC2=O)cc1OC(C)=O | inactive: > 100 µM
16 | COC(=O)[C@H](C)N(C)C(=O)[C@H](C)N1[C@@H](c2ccccc2)COC1(C)C | inactive: > 100 µM
17 | O=C(CNc1ccccc1[N+](=O)[O-])Nn1cnc2ccc(S(=O)(=O)Nc3ccccc3[N+](=O)[O-])cc2c1=O | inactive: > 100 µM
18 | Nc1nc2ncc(SCc3ccc(C(=O)NC(CCC(=O)O)C(=O)O)cc3)cc2c(=O)[nH]1 (stereo unspecified) | inactive: > 100 µM

Row | Structure (SMILES) | GI50
19 | Cc1ccc2nc(N)[nH]c(=O)c2c1Sc1ccncc1 | inactive: > 100 µM
20 | CC1=CCC[C@@H]2[C@@](C)(Cc3cc(O)ccc3O)[C@H](C)CC[C@@]12C | inactive: 7.16 µM
21 | N#C/C(=C/c1ccc([N+](=O)[O-])o1)c1ccccc1 | inactive: > 100 µM
22 | O=C(NC1C(=O)NC(CCc2ccccc2)NC1=O)OCc1ccccc1 (stereo unspecified) | inactive: > 100 µM
23 | CC(=O)NC(CCCN)C(=O)NCc1ccccc1 (stereo unspecified) | inactive: > 100 µM
24 | Cc1ccc(OCC2OC(n3cnc4c(Cl)nc(Cl)nc43)CC2Oc2ccc(C)cc2)cc1 (stereo unspecified) | inactive: 2.85 µM
25 | COC(=O)c1cc(NC(=O)Cc2c[nH]c3ccccc23)cn1C | inactive: > 100 µM
26 | Nc1nc(S)c2c(N)n[nH]c2c1C(=O)Nc1ccccc1 | inactive: > 100 µM
27 | CN(C)C(=S)N/N=C\C=N/NC(=S)N(C)C | active: 0.457 µM
28 | Nc1ncnc2c1ncn2C1OC(COC2C(CO)OC(OC(C(=O)O)C(O)C(OP(=O)(O)O)C(O)C(=O)O)C(O)C2O)C(O)C1O (stereo unspecified) | inactive: > 100 µM
29 | COc1ccc(C2OC[C@H]3O[C@@H](OCc4ccccc4)[C@H](O)[C@@H](O)[C@@H]3O2)cc1 (stereo partly specified) | inactive: > 100 µM
30 | CS(=O)(=O)OCCN1CCC2(CC1)SSC1(CCN(CCOS(C)(=O)=O)CC1)S2 | inactive: 39.4 µM
31 | CCC1(CC)C(=O)N(C(=O)c2cc(OC)c(OC)c(OC)c2)N(C(=O)c2cc(OC)c(OC)c(OC)c2)C1=O | inactive: > 50 µM
32 | CC(C)C(C=O)C(O)(C(F)(F)F)C(F)(F)F (stereo unspecified) | inactive: > 100 µM
33 | O=C1CSC(C(/N=N/c2ccccc2)=C2Nc3ccccc3N2)=N1 | inactive: 42 µM
34 | COc1cc(/C=C/C=C2\CC/C(=C\C=C\c3ccc(O)c(OC)c3)C2=O)ccc1O | inactive: > 100 µM
35 | CCCc1nc(Cl)nc(Cl)c1Cl | inactive: 1.29 µM
36 | COc1cc(Oc2nc3c(N)cc(C(F)(F)F)cc3nc2-c2ccccc2)cc(OC)c1OC | inactive: 6.92 µM

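96-well plates; 48 h exposure; 5 concentrations. Endpoints by linear interpolation between flanking doses. Not reached: highest tested concentration assigned. At the GI50, growth is halved.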 Activity calls are given as the source filed them. No stated cut-off is given here; in the data, active = GI50 up to about 1.1 µM and inactive = higher.
